Measured values: article PMC4336329 (PLoS ONE, 2015)
Screen size: about 310,000 compounds; about 14,000 (4.5%) showed an effect of 50% or more. Effects have a minus sign here. The list shows a part of the results.

biological target: human ether-à-go-go-related gene (hERG) potassium channel (human, UniProt Q12809); experiment: primary screen, population patch clamp on CHO cells stably expressing hERG
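Note: peak tail current of the secondary pulse compared with the same well before compound.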

Sequence of human ether-à-go-go-related gene (hERG) potassium channel (Q12809 whole entry, looked up): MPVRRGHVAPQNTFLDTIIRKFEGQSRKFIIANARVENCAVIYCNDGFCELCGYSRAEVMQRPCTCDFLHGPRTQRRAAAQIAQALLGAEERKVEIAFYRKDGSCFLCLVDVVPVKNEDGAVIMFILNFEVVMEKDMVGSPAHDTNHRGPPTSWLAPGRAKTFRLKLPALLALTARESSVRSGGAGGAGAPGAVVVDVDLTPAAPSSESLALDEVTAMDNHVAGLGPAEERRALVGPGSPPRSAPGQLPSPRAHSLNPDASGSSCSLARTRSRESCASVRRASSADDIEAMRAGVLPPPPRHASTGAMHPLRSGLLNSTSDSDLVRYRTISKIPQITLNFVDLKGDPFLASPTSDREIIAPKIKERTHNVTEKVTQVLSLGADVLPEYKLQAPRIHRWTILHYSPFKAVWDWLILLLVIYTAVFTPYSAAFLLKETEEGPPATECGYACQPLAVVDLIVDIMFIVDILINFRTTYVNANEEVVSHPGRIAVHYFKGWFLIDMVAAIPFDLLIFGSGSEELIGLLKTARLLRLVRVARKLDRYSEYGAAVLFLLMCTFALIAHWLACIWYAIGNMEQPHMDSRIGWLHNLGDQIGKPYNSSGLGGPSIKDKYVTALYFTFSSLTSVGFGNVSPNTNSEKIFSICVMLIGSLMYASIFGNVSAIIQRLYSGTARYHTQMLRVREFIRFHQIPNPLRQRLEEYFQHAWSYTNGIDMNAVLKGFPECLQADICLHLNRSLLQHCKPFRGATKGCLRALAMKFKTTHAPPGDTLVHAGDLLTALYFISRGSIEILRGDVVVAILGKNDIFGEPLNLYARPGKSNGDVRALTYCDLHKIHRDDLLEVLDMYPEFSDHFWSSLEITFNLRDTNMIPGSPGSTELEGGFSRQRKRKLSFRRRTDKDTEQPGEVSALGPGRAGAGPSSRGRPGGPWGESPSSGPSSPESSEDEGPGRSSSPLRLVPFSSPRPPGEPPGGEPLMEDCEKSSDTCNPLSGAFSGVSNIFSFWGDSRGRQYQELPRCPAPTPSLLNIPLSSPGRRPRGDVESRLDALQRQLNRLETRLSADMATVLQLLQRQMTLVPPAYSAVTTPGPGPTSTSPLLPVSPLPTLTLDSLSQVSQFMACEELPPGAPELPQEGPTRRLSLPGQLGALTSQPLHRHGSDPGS

| SMILES | hERG current change (%, negative = inhibition) at 10uM [%] |
| --- | --- |
| Cc1ccc(CN2CC(C(=O)Nc3cccc(C)n3)CC2=O)cc1 (stereo not drawn) | -13.1 |
| O=C(Nc1ccc(Cl)c([N+](=O)[O-])c1)C(NCCCO)c1ccccc1 (stereo not drawn) | -36.7 |
| N#CC1=C(N)Oc2cc(N)ccc2C1c1ccc(F)cc1F (stereo not drawn) | -22.9 |
| Cl.N=c1sccn1CC(=O)Nc1ccc([N+](=O)[O-])cc1Cl | -40.6 |
| COc1ccc(CCNC(=O)C2CC3Cn4c(nc5ccccc54)C3N2c2ccccc2)cc1 (stereo not drawn) | -7.57 |
| Cc1cc(C)n(C(=O)CCCCCCCCC(=O)n2nc(C)cc2C)n1 | 13.6 |
| COc1ccc(CNC(=O)c2cc(-c3cc(C)ccc3O)n[nH]2)cc1 | 34.1 |
| Cc1cccc(-c2cc3nc4c(c(N5CCOCC5)n3n2)CCCC4)c1 | -12.2 |
| Cc1ccc(S(=O)(=O)N2CCOCC2)cc1NC(=O)c1cc(-c2ccccn2)nc2ccccc12 | -46.7 |
| O=C(Nc1cccc(Cl)c1)Nn1cnnc1 | 17 |
| CCC(CC)C(=O)Nc1cc(NC(=O)C(CC)CC)cc(C(=O)O)c1 | 17.1 |
| Cc1cc(C)c(C(=O)CSc2n[nH]c(=O)n2C2CC2)cc1C | -9.54 |
| O=C1C=C(Nc2ccc(Cl)cc2)CC(c2ccccc2)C1 (stereo not drawn) | -8.07 |
| CCOC(=O)C(C)Oc1c(C(=O)OC)sc2ncccc12 (stereo not drawn) | 0.757 |
| CCSc1nnc([C@@H]2CCCN2C(=O)OC(C)(C)C)o1 | 7.93 |
| CC(=O)c1cccc(S(=O)(=O)NC2CCCCCC2)c1 | -2.98 |
| O=C(COC(=O)CCc1nc2ccccc2c(=O)[nH]1)NC1CCS(=O)(=O)C1 (stereo not drawn) | 7.91 |
| CCc1nnc(NC(=O)c2cc(-c3ccco3)nc3ccccc23)s1 | 12.8 |
| CC(=O)c1nn(-c2ccc(Br)cc2)cc1C(=O)c1ccco1 | -22.5 |

| SMILES | hERG current change (%, negative = inhibition) at 10uM [%] |
| --- | --- |
| Cc1ccc(OCCOC(=O)c2cc(S(=O)(=O)N3CCCCC3)ccc2N2CCOCC2)cc1 | -9.24 |
| CC(C)(C)C1CCc2c(sc(NC(=O)c3ccncc3)c2C(N)=O)C1 (stereo not drawn) | 20 |
| CC(=O)Nc1ccc(S(=O)(=O)N2CCCC2)cc1 | 12.1 |
| COc1ccc(/C=C2\SC(=O)N(CC(=O)NNC(=O)c3ccccc3O)C2=O)cc1 | 9.2 |
| Cc1cnc(SCc2cnc(C)nc2N)nc1 | 3.26 |
| O=C(NCc1ccncc1)C(=O)N/N=C/c1ccccn1 | 16.3 |
| CC1(C)N(OCc2ccccc2)C(=O)C(=O)N(OCc2ccccc2)C1(C)C | -6.11 |
| Cc1ccc(-c2nc(C#N)c(N3CCC(C)CC3)o2)cc1 | 17.5 |
| O=C(COc1ccccc1)Nc1nnc(-c2ccc3c(c2)CCCC3)o1 | 9.37 |
| CCOC(=O)CNC(=O)/C=C/c1ccc2c(c1)OCO2 | 16.4 |
| CC(C)C(NC(=O)OCc1ccccc1)C(=O)OCC(=O)NCc1ccco1 (stereo not drawn) | 4.89 |
| CC/C(=N\NC(=O)c1ccccc1O)c1c(O)n(C2CCCCC2)c(=O)[nH]c1=O | 13.9 |
| CCCCCn1c(=O)c2ccccc2n2c(=S)[nH]nc12 | 4.97 |
| CCOC(=O)C(C)n1nc(/C=C/c2ccc(OC)cc2)ccc1=O (stereo not drawn) | -19.7 |
| C=CCn1c(COc2ccccc2)nnc1SCC(=O)O | -3.46 |
| CC(=O)Nc1ccc(NC(=O)c2ccc([N+](=O)[O-])cc2Cl)cc1 | 6.15 |
| Cc1cc(=O)oc(C)c1C(=O)Nc1cccc2ccccc12 | -2.06 |
| CS(=O)(=O)N(CC(=O)Nc1cccc(Cl)c1Cl)c1ccccc1 | -6.78 |
| CN(C)c1ccc(/C=N\NC(=O)c2cccc3cc[nH]c23)cc1 | 4.25 |

| SMILES | hERG current change (%, negative = inhibition) at 10uM [%] |
| --- | --- |
| C/C(=C\C(=O)c1ccc(C)o1)Nc1ccc(C(=O)O)cc1C | 8.31 |
| CCn1c(SCC(=O)C(C)(C)C)nnc1-c1ccccc1OC | 10.9 |
| O=C1CN(CC(=O)N2CCCCC2)c2ccccc2O1 | 10.5 |
| C/C=C/C(=O)N1CC2(CC(c3cccc(NC(=O)/C(C)=C/C)c3)=NO2)C[C@H]1C(N)=O (stereo partly drawn) | -1.21 |
| CS(=O)(=O)O.NC1C2CN(c3nc4c(cc3F)c(=O)c(C(=O)O)cn4-c3ccc(F)cc3F)CC12 (stereo not drawn) | -8.13 |
| Cc1cccc2sc(NNC(=O)c3ccc4c(c3)OCCO4)nc12 | -21.5 |
| CN(C)CCC(O)c1ccccc1 (stereo not drawn) | 9.45 |
| O=C(CN1C(=O)NC2(CCCC2)C1=O)Nc1nc2ccccc2s1 | -3.9 |
| Cc1nc(C)c(C(=O)N/N=C/c2c[nH]c3ccccc23)s1 | 21.8 |
| CCn1cc(C(=O)NCCCOC(C)C)c2cc(OC)c(OC)cc2c1=O | -0.903 |
| O=C(c1ccc(COc2ccccc2Cl)o1)N1CCN(Cc2ccc3c(c2)OCO3)CC1 | -4.94 |
| c1ccc(CCNc2c3c(nc4ncnn24)CCC3)cc1 | -25.7 |
| CC(=O)N/C(=C\c1ccccc1)C(=O)OCc1ccc(F)cc1 | -0.974 |
| Cc1cccc(OCc2nnc(NC(=O)c3cccs3)s2)c1 | 1.62 |
| O=C(CCS(=O)(=O)Cc1ccccc1)Nc1nncs1 | 22.1 |
| Cc1ccc([C@@H]2[C@@H]3C(=O)N(C)C(=O)[C@@H]3[C@]3(Cc4ccccc4)C(=O)N(Cc4ccccc4)CC(=O)N23)o1 | -5.8 |
| COC(=O)c1c(C)[nH]c(C)c1-c1cccc([N+](=O)[O-])c1 | 3.91 |
| Cc1ccc2c(CN(C)Cc3ccc(Cl)cc3Cl)cc(=O)oc2c1 | -8.5 |
| Cc1cccc(N(CC(=O)NCCSCc2ccco2)S(=O)(=O)c2ccccc2)c1 | -35.1 |
